# ± gives the standard deviation of the averaged measurements. This is one part of the list.
# Test system: PfAP2-G AP2 domain (GST-tagged)
# Assay: gcPBM binding intensity (ln(normalized median fluorescence intensity)); higher = stronger DNA binding
# Method in brief: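 Alexa488 anti-GST antibody, scanned at 488 nm, detected GST-tagged P. falciparum DNA-binding domains that had been expressed in E. coli and incubated for 1 h on an Agilent 4 × 180k array. The array carried primer-extended double-stranded 36-bp intergenic genomic probes and negative controls. Binding intensity is the highest Masliner-normalised natural-log median intensity across replicate spots of either orientation of each probe.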
row,Sequence,gcPBM binding intensity (ln)
1,ATCATTTTTATGTACACACACATATACGTTGAATAT [CACACA_site1865],11.6 ± 1.1
2,TAATTTTTTATATATTGTACAAATAATATATGATGT [XGTACX_site268],10.9 ± 0.59
3,TAAATATAGAAACACACACACATTAATACATATATT [CACACA_site3489],10.01 ± 0.035
4,AAATTTGAAATGCATGAACACACACCGCTATAAATG [CACACA_site8230],10.24 ± 0.099
5,AGCATAAAAATGATATGTACATATATATATATATAT [XGTACX_site2836],11 ± 0.57
6,CATACATACATACATACACACATACATATGTATATA [CACACA_site7216],10.6 ± 0.38
7,AATCATAAACATTATGCACACAAAAATAAAAAAAAA [CACACA_site8289],10.1 ± 0.26
8,TATCTTCAATGTGAAAGTACTTAAATTGTTATAAAA [XGTACX_site2586],11.3 ± 0.79
9,ATTTAATGTATTTTGCGTACGAATTATTTTATTTCA [XGTACX_site7331],11.2 ± 0.61
10,GAAATTAAATGACATACACACTATATTATATATTTT [CACACA_site5693],9.85 ± 0.15
11,TAGATAGATTAAAATACATGCATATTATTAAAAAAT [TGCATGCA_site739],9.62 ± 0.071
12,CACCCATACACATACAAACACACATTCTATATATAT [CACACA_site1600],10.2 ± 0.18
13,TATATATATATATATGTGCACATATTTATATGTTTT,10.2 ± 0.22
14,TGGAATAAAAAAAGGAGTACAATTAATTATTCTTAA [XGTACX_site8299],11.8 ± 1.3
15,TATTTATAAATTTACACACACACATGTGAACATAAA [CACACA_site1909],10.2 ± 0.14
16,ATTTTAAAAAATTAATGTACTTAATTAATACTGAAA [XGTACX_site7702],11.1 ± 0.93
17,AAAAAAAAAACAAATGCATGTAATATAAGAATTACA [TGCATGCA_site908],9.64 ± 0.33
18,ACTTATAATATTTAGTGTACATATTGTGACTAATAC [XGTACX_site1508],11.4 ± 0.69
19,TATCAAAAAAAAAGTAGTACGATAATAGTTTCCCAA [XGTACX_site1812],11.4 ± 0.79
20,AAAAACAATCATTTTAAATAAAAATCTCTAATTTAA [GTGCAC_negctrl_site138],9.61 ± 0.22
21,ATTTGTTCATTTGGTTGTACATAATTTATTTTTATA [XGTACX_site785],11.2 ± 0.69
22,TTTTCATTTTTTTTTTTTTTTTTTTTTCTTTTTTTT [CACACA_negctrl_site1312],9.52 ± 0.099

row,Sequence,gcPBM binding intensity (ln)
1,ATTTCTTTAATATACACACACCAAAACAAAAAAAAA [CACACA_site6416],10.3 ± 0.29
2,GTTGTGTAATTCGTAACACACATAAAATATATATAA [CACACA_site6059],10.2 ± 0.26
3,TTTTTAAAATATTTAACACACAATTTTAATGCATAA [CACACA_site6036],10.1 ± 0.26
4,AAAAAAATAAAACACACACACAAAAAAATAAAAATA [CACACA_site465],9.995 ± 0.007
5,ATATAGTTCGATATAGTTAGTATGAATTGAAAAATA [CACACA_negctrl_site1826],9.85 ± 0.042
6,ATGTGATAATTTAATAGTACATAACAGTTTAACAAT [XGTACX_site5854],11.1 ± 0.52
7,TCATAGCACAAAAAATGTACTTATTATTTAATATTT [XGTACX_site5687],11.1 ± 0.71
8,GTTTCCTTAATATTCACACACATATCTATAATATAT [CACACA_site6959],10.06 ± 0.014
9,ATAATAATTATATCAGTGCGCATATATATTTATTTA,9.93 ± 0.085
10,TTATAATAAATATTTATTATATATAATATATATTAC [CACACA_negctrl_site1802],9.685 ± 0.007
11,TTTTTTATTAAATATATATAATAATAATAATTTGTA [CACACA_negctrl_site1719],9.54 ± 0.11
12,TTTGTTTTATGTGGTTGTACACAAATACAATTTAAA [XGTACX_site5156],11.6 ± 1.1
13,TTTATATGCAATTAAGTGCATAAGAAAAAAAAAGGA [GTGCAC_site9966],10.1 ± 0.22
14,CAAACAAATTGTGAAACACACATATTTATATTTATA [CACACA_site7030],9.76 ± 0.071
15,TTATAAAATAAACTTACACACATGAAATATTATAGT [CACACA_site7000],10.1 ± 0.13
16,CCTTACCAAATAATATGTACACATTTAATGTTATAT [XGTACX_site7840],11.5 ± 0.71
17,TATTATATATTATATAGTACATATTTATGTAAGAGG [XGTACX_site3099],10.9 ± 0.73
18,ATTTAATAACGGCATGCATGTCCTTATATAAATTTA [TGCATGCA_site1012],10.4 ± 0.28
19,TGAATTGTAATTTATAATATACGTGGTTTCTACTTA [CACACA_negctrl_site559],9.98 ± 0.26
20,CAAAAATAAATATAAACACACAATAAATAAATAAAT [CACACA_site891],9.74 ± 0.057
21,TATCAGTATACAACAACACACATAATGTTTGTCATC [CACACA_site2980],9.96 ± 0.057
22,CACTTAAAAAAAATACGTACACATATATATATATAT [XGTACX_site2054],11.5 ± 0.87

row,Sequence,gcPBM binding intensity (ln)
1,GTATTAATTTATATATGTACATATGTGATATATATA [XGTACX_site5825],11 ± 0.54
2,ATGGTATCTTTTAGAAGTACATCATGATAATAATTT [XGTACX_site5544],11.7 ± 0.91
3,GATCATAATATTTAAAAGAATATATATAAAAAGGAA [XGTACX_negctrl_site310],9.77 ± 0.23
4,TATAAAAATATATGCACACAAATAAAAAATTATATA [CACACA_site3629],9.99 ± 0.22
5,TATATTTATACAATATGTACATATTATATATATATA [XGTACX_site3098],11 ± 0.59
6,CAAAATTAATAAGTCACACACACATATATAATATAT [CACACA_site798],10.12 ± 0.035
7,AAAAATAGGAACCAATATCCAACGTGACTTTATAAT [CACACA_negctrl_site1011],10.3 ± 0.18
8,ATTTTTTTTTTTTTTTTTTTTTTTTTTTGATTTGTG [CACACA_negctrl_site1391],9.88
9,TCTACAATTATAATTACACACTATAAAAAAGAAAGA [CACACA_site2984],10 ± 0.18
10,AAAAAATTTTTAAGCACACACATAGATAATATATAT [CACACA_site1555],10.2 ± 0.014
11,GGAAAAAAAAAAAAAAAACACACGGTACATTCAAAC [CACACA_site2715],10.5 ± 0.23
12,AAAATAATTATGAATTGTACAGGTTTTTTTTTTTTT [XGTACX_site220],10.8 ± 0.48
13,AAAATTTTTCTTAAAGCATGCACAATTAAGAAGACG [TGCATGCA_site883],10.2 ± 0.13
14,TTTTTTTTAAGAGATAGTACATAAATATTATAATAT [XGTACX_site4685],11.1 ± 0.86
15,TTAAAATTAATTCACCAGTATTAAAATAAAAACGAA [CACACA_negctrl_site1428],10.1 ± 0.24
16,AAATAAAATTTTATGTGTACGCAAAAAGTTGTAAGC [XGTACX_site8911],11.9 ± 1.3
17,ATGGTTTAGTTATATACACACTCGAAAATAACGACA [CACACA_site7520],10.2 ± 0.19
18,TATAAAAATATATTTACACACTATATATATCGAAAG [CACACA_site1700],9.92 ± 0.057
19,ATATATTTTCAAAAAAGTAAATCAAAATAAATATAT [TGCATGCA_negctrl_site319],9.84 ± 0.085
20,TCCAAATACAACTACACACAAACAAAAATTATATAT [CACACA_site881],9.99 ± 0.23
21,AATAAATAAATATATACACACATATATATATAATAT [CACACA_site921],9.77 ± 0.028
22,TGAAAAAATATAAAATATAAAATAAAAAATATAAAA [GTGCAC_negctrl_site536],9.555 ± 0.007

row,Sequence,gcPBM binding intensity (ln)
1,TACAATCTAAAATACACACACACAAACATATATTTA [CACACA_site3702],10
2,AAGATATATATAGAAAGTACTTATATTTGTATAATT [XGTACX_site8855],11 ± 0.51
3,ATATTAATATATATGTTTTATTACCATTTTATGTAT [CACACA_negctrl_site1761],9.855 ± 0.021
4,ATTATACAAAATGGTAAGGAAAAGGAAATTTTTTTT [CACACA_negctrl_site1090],9.77 ± 0.014
5,CAATATTATATATATACACACATAATCTGTAAAAAC [CACACA_site1068],10 ± 0.13
6,AAAGTAGGCTTATATGCACACTTTGAAATATTATAA [CACACA_site5117],9.86 ± 0.057
7,CATATATATATATATACACACATATATATTTTCTTT [CACACA_site1457],9.79 ± 0.16
8,AAAAAAAAAAATATCACACACACATAAATATAAACA [CACACA_site7138],9.95 ± 0.057
9,TATATATATCAGCAATGTACACAATGCATATTATAT [XGTACX_site4836],10.9 ± 0.6
10,ATAAAAATTGATTATACACACGCGCACCCACAACAA [CACACA_site3536],10.8 ± 0.54
11,TATTTATAAATTTACACACACACATGGGAACATAAA [CACACA_site5111],10.6 ± 0.3
12,ATGTCAAATTTTTGTGCACACATATATAGTTATTAT [CACACA_site2242],10.6 ± 0.31
13,TTATTTTATTTTAAAAAAAACAATATAAATTCAAAG [GTGCAC_negctrl_site57],9.725 ± 0.021
14,AATGTAAAAGTAAACACACACATATATATATACATA [CACACA_site2484],9.985 ± 0.049
15,TATAAAAATAAAAAAAGTACACATAAAAATATATAT [XGTACX_site5189],11.5 ± 0.78
16,GTATCTCATTATTCGTGTACTAAACACATAAAAATA [XGTACX_site2262],11.2 ± 0.88
17,ATCTATATCTATAATACACACTAAAGTAACAGAATA [CACACA_site7370],10.1 ± 0.18
18,GATTTACAACACGAACGTACAGAACAAAAAGGAAAA [XGTACX_site6501],11.2 ± 0.71
19,TGTTTAAAGGAAAAGGAGTAGTCTATTATATTATCT [CACACA_negctrl_site858],9.9 ± 0.11
20,ATACACATATATGTGTGTACTCACCTTTTAATATGA [XGTACX_site4349],11.5 ± 1
21,TATTGTATTTAATAAACACACAATATTAAAAATATA [CACACA_site4725],9.91 ± 0.16
22,CATATATACACATACACACACACACGGACACGCACA [CACACA_site6910],11.1 ± 0.76
